# Results reported in the supplement of paper PMC10681739.
# ± gives the standard deviation of the averaged measurements. The full ranking holds about 4,000 sequences; the median of “arbitrary fluorescence units” is about 830, and the highest 2% start at about 6,500. Most of the strongest results are missing from this list.
# Target: RUNX1 (UniProt Q01196)
# Experiment: RUNX1 binding intensity (PBM fluorescence), RUNX1 alone (arbitrary fluorescence units); higher = stronger binding
# Conditions: RUNX1 concentration 2 nM; ETS1 concentration 0 nM
# Method: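 gcPBM on 36-bp genomic-derived probes (partner site mutated) containing one RUNX1 site and no ETS1 site. Recombinant human RUNX1 (2 nM) was incubated alone or with ETS1 (25 nM) and detected by anti-RUNX1 antibody fluorescence. Values are medians over 4 replicate spots (not normalised). The probes sit in constant array flanks that are not printed.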
# 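Note: Full-length recombinant human RUNX1 bound to double-stranded DNA microarray spots, detected with an Alexa488-labelled secondary antibody after the anti-RUNX1 primary, read as scanned spot fluorescence.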
# Chain of UniProt Q01196 (Q01196 whole entry): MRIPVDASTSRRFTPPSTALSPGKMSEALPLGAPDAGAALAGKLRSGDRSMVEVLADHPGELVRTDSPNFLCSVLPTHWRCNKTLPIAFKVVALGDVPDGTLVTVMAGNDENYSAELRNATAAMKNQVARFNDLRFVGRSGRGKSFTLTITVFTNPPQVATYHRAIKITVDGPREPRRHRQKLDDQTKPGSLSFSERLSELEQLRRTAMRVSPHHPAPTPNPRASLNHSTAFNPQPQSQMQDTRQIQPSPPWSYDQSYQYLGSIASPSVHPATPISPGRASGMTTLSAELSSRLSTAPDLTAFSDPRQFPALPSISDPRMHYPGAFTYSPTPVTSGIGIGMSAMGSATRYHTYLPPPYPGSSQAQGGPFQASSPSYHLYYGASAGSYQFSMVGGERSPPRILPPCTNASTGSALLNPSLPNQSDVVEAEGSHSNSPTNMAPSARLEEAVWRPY
row,Sequence,RUNX1 binding intensity
1,TACATAGCCTGCATTCTCAGAAAAACCACAGGCTAG,1000
2,GACCACCTCCTTTCTGTGTTTTGTGGTTTCACAACT,2680
3,AGCGAGCGGTGGCTGTGCCAGGCGTTCCATCTGGCA,664
4,AAGCCATTTTGCGGCTAAAGCCTTTCAGCCCTTAAA,1030
5,AACTGGGCTGAAAGAACGGCTAACCGCAAGCTGCCG,13200
6,TTTACAGGCAATTACAGGGGTTAAACCAAACCACAA,1230
7,TATGTCTGAATTCCGCTCGTGGTTTCCATCTTAGCC,856
8,GCAGATCTGGTAACCACCATCTTTCAGGCTCCCTCG,1100
9,TTGTGGGTGTGTCTCTTTCGGTCTTACGTCCTAACA,854
10,TCAAAGAGGCAGTGGTTTATAATTGCCTCTTGACTG,738
11,CACCTCCTCTGTGACTGCAGGTTTCCAACCACAAGC,986
12,CTCATGGGCAATGTAGTTTCTAAACCGCGGGCGCCC,814
13,CTGGCTACAGTAAAAACAAAGTCAAACCACAGCACT,785
14,ATGGAAAGGCAGTCGGTGGGAAACCGCCTCAGCGGT,696
15,GGTCCATGAAGACGTCAAGGGCTTGGTTTTGTAAAC,709
16,GAAGCTCTTGTGGTTCCTGGCGGCATCGTGTCCCTC,990 ± 130
17,GTACTGCTTGTGGGAGAGCCCCACAGGCAATCCAGA,805
18,CGATATAACCACCCCTAAGCTAAACTACATGCTGGT,1190

row,Sequence,RUNX1 binding intensity
1,GAGTCGTCACCGCACACTTGGTCCCGGGCTACATTT,1020
2,TCTTGCTGACCGCCCCTCCCAGTTCCCACTGGGCTG,1010
3,CGGCGGCCCCTGCGGCTTCAGGCTTGCTGGCCGTCA,804
4,CTGACTTGTTGTGGTCTCTGCCACTTGCTGAGGTGT,918
5,ACTGCGGGCGTTGCTAGCATGAAGGCCGAAGCGCGC,695
6,GCAGATACCACAGACTCTCTCCTTTGCTGCTGAATA,1280
7,ACTGGGGTTGCGGCGTCTAAGTGTTTCAGGTGGATT,833
8,GTTGTCCGTGACCACCAGCCCCAAAGGAATTGCCCT,1030
9,GTAATCACAGGCCGCAGAGTTCCAGGCTGCTCCGTG,771
10,CGCCGAACTTTCGGCAGTAAATTCCGTGGTTTCCCT,882
11,ACCCCAGCCTGATCCTCTGCTTATCTCCCACATGCA,1200
12,CCGCCAACCGCAGGGCCGCGACACGGACGGCAAGCA,3530
13,CAGCAATACCACAAGCTGTTTAAGGACGTTCCCTTG,1560
14,TTGAAAAGGACGTTCATTTGTACTGAGGTGGTTTTA,706
15,TGGCTGGAATCTCCGGACTGAAAAACCGCTGTCCTA,761
16,GCGGCTCTGAGGTACCGCCAGCGGAATCGGGCAGAG,714
17,AGCTAGGACAGCATGTGAAAACCACACTGACAAAGT,922
